According to PubChem BioAssay AID887 (National Center for Advancing Translational Sciences (NCATS), 2007):
Where “and” joins values, the source holds several entries; their conditions need not be identical. Equal entries are not always repeated. Among all 74,000 compounds or so, about 1,100 (1.5%) were called active. This list was built around the results that the source calls inconclusive (neither active nor inactive); the mix of calls is not that of the screen. Calls come from the whole dose curve; as a rule, active = well fitted inhibition curve with a large enough effect; inconclusive = small, poorly fitted or top-dose-only effect; inactive = no such curve, though single readings can be large or run the other way. Potencies beside an inconclusive call are fits to weak or partial responses and may not hold up.

These compounds were tested against Polyunsaturated fatty acid lipoxygenase ALOX15 (Homo sapiens) (UniProt P16050) (assay: qHTS Assay for Inhibitors of 15-hLO (15-human lipoxygenase)). Conditions: purified 15hLO-1, xylenol orange hydroperoxide absorbance; activity change, negative = inhibition: at 57.1 µM (top of the series) unless noted.
Sequence of UniProt P16050 (P16050 whole entry, looked up): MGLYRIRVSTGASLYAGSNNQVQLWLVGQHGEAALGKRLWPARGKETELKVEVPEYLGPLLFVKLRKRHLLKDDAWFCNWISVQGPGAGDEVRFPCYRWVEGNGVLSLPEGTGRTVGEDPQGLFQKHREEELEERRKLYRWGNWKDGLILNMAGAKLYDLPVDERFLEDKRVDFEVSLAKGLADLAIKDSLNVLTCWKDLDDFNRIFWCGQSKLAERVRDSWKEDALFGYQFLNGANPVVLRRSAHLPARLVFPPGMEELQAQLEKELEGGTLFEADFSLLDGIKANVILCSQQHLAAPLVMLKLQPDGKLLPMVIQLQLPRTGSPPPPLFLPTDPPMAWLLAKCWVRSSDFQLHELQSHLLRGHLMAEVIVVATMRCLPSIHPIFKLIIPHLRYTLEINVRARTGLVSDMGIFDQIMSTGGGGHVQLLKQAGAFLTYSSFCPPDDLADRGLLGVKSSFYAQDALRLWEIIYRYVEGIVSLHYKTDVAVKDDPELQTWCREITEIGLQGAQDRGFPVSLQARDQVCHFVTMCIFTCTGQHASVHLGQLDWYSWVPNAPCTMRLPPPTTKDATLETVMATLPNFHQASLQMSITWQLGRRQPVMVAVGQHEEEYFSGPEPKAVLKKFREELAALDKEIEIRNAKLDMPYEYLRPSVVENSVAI
How it was run: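 Purified human 15hLO-1 (40 nM final) in 25 mM Hepes pH 7.5, 0.01% Triton X-100 was preincubated with compound 15 min at room temperature, then reacted 6 min with 50 uM arachidonic acid; hydroperoxide detected by Fe-XO, 573/405 nm absorbance ratio.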
% is set by controls: 0 for no effect and ±100 for the full control effect; potency is the fitted concentration of half-maximal effect; tags give direction and shape of the fitted curve.
Note: nearly all actives have a fitted effect of over 55% in size.

Row | SMILES | Potency | activity change, negative = inhibition
1 | CN(C)S(=O)(=O)c1ccc2c(c1)/C(=C/c1cc3c([nH]1)CCCC3)C(=O)N2 | inconclusive: 7.94 µM [inhibitor, partial curve] | –
2 | Clc1ccccc1-c1nnc2sc(-c3ccc4c(c3)OCO4)nn12 | inconclusive: 3.16 µM [inhibitor, full curve] | –
3 | N#C/C(=C\c1ccc(O)c(O)c1)C(=O)NCCCCc1ccccc1 | active: 1.58 µM | –
4 | Cc1nc(N2CCC(C(N)=O)CC2)c2nnn(Cc3ccccc3)c2n1 | – | inactive: -25.8%
5 | Cc1nnc(SCCn2c(N3CCN(c4ccccc4)CC3)nc3c2c(=O)n(C)c(=O)n3C)s1 | inconclusive: 12.6 µM [inhibitor, partial curve] | –
6 | Cc1nc2cc(NC(=O)Nc3ccc(N4CCOCC4)cc3)ccc2n1C | – | inactive: 3.2%
7 | Cc1nccn1CC(O)COC1CCCCC1 (stereo unspecified) | – | inactive: -4.74%
8 | CN1CCCN(C)C1c1cc([N+](=O)[O-])ccc1O | – | inactive: 3.78% [at 11.4 µM]
9 | Cc1ccc2c(C(=O)CN3CCCC3)c(C)[nH]c2c1 | inconclusive: 15.8 µM [inhibitor, partial curve] | –
10 | CC(C)CN1CC2(CCN(C(=O)c3ccco3)CC2)C1 | – | inactive: -0.398%
11 | Cc1ccc2c(c1)C(=O)[C@]1(O)CCN(c3ccccc3)C1=N2 | inconclusive: 31.6 µM [inhibitor, single point] | –
12 | COc1ccccc1N1CCN(C(=O)c2sc3nc(-c4ccc(F)cc4)cn3c2C)CC1 | inconclusive: 10 µM [inhibitor, partial curve] | –
13 | CCOC(=O)C1=C(CS(=O)(=O)c2ccc(F)c(C)c2)NC(=O)NC1c1ccc(O)c(O)c1 (stereo unspecified) | inconclusive: 12.6 µM [inhibitor, partial curve] | –
14 | CC1CCN(C(=O)CSc2nc3ccccc3[nH]2)CC1 | – | inactive: -27.9%
15 | CSc1cc(/C=N/O)c(SC)s1 | inconclusive: 39.8 µM [inhibitor, single point] | –
16 | COc1ccc(-c2cc(C(F)(F)F)nc(N3CCN(C)CC3)n2)cc1 | inconclusive: 1.58 µM [inhibitor, full curve] | –
17 | CNCCc1ccccn1 | inconclusive: 39.8 µM [inhibitor, single point] | –
18 | Nc1nc2c(s1)CCc1c-2cnn1-c1ccccc1 | active: 2.51 µM | –
19 | c1csc(-c2nn3c(Cn4cnc5ccccc54)nnc3s2)c1 | inconclusive: 6.31 µM [inhibitor, full curve] | –
20 | O=C(Nn1c(-c2ccccc2)nc2ccccc2c1=O)c1ccco1 | inconclusive: 20 µM [inhibitor, partial curve] | –
21 | CCNc1nc(NC(C)C)nc(N(C#N)Cc2ccccc2)n1 | inconclusive: 7.94 µM [inhibitor, full curve] | –
22 | COC(=O)N1CCC2(CCN(Cc3ccc(C#N)cc3)CC2)CC1 | – | inactive: -21.7%
23 | CCOC(=O)N1CCc2c(sc(NC(=O)c3ccc(Cl)s3)c2C(N)=O)C1 | inconclusive: 6.31 µM [inhibitor, partial curve] | –
24 | c1ccc2c(c1)CCN2CCN1CCc2ccccc21 | inconclusive: 12.6 µM [inhibitor, partial curve] | –
25 | COc1ccc(Cc2nc(-c3ccc(Cl)cc3)no2)cc1 | inconclusive: 39.8 µM [inhibitor, single point] | –
26 | CCOc1ccc(-n2c(-c3ccco3)n[nH]c2=S)cc1 | active: 31.6 µM | –

Row | SMILES | Potency | activity change, negative = inhibition
27 | COc1ccc(Br)cc1C1CC(=O)N2CN(Cc3ccccc3)CSC2=C1C#N (stereo unspecified) | active: 2.51 µM | –
28 | CC1(C(=O)O)Sc2[nH]c(=O)sc2C2c3ccccc3OC(=O)C21 (stereo unspecified) | inconclusive: 15.8 µM [inhibitor, partial curve] | –
29 | Cc1cccc(N=c2oc3cc(O)ccc3cc2C(N)=O)c1 | inconclusive: 25.1 µM [inhibitor, partial curve] | –
30 | C1=Nc2c(NCc3ccccc3)ncnc2Oc2ccccc21 | inconclusive: 31.6 µM [inhibitor, single point] | –
31 | Cc1cnc(NC(=O)c2ccc(-c3nc4ccccc4s3)o2)s1 | inconclusive: 31.6 µM [inhibitor, single point] | –
32 | CCn1nnc(NC(=O)c2cccnc2)n1 | inconclusive: 12.6 µM [inhibitor, partial curve] | –
33 | CC(=O)Nc1ccc(S(=O)(=O)Nc2nc(C)cc(-n3nc(C)cc3C)n2)cc1 | – | inactive: 6.52% [at 11.4 µM]
34 | N#Cc1c2c(c(NCc3ccco3)n3c1nc1ccccc13)CCC2 | active: 5.01 µM | –
35 | COc1ccccc1OCc1nc(C#N)c(N2CCC(C(N)=O)CC2)o1 | – | inactive: 1.85%
36 | Cc1ccc(C2c3c(-c4ccccc4O)n[nH]c3C(=O)N2Cc2ccncc2)cc1 (stereo unspecified) | inconclusive: 31.6 µM [inhibitor, single point] | –
37 | O=C(O)C1(O)C[C@H](O)C(O)[C@@H](O)C1 (stereo partly specified) | – | inactive: 9.29% [at 25.6 µM]
38 | O=C(c1cc(S(=O)(=O)N2CCOCC2)ccc1F)N1CCCc2ccccc21 | – | inactive: 11.2%
39 | N=C(c1ccc2ccccc2c1)c1ccccc1Cc1ccccc1 | – | inactive: 6.25% [at 11.4 µM]
40 | CC(=O)S[C@@H]1CC2=CC(=O)CC[C@@]2(C)[C@H]2CC[C@]3(C)[C@H](CC[C@@]34CCC(=O)O4)[C@H]12 | – | inactive: -5.57%
41 | CN(C)c1ncc2nc(CCc3ccccc3)c(=O)n(-c3ccccc3)c2n1 | inconclusive: 31.6 µM [inhibitor, single point] | –
42 | Cc1cccc2cc(C#N)c(SCCN3CCCCC3)nc12 | inconclusive: 25.1 µM [inhibitor, partial curve] | –
43 | Nc1nc2c(cnn2CCc2ccccc2)c2nc(-c3ccco3)nn12 | active: 20 µM | –
44 | COCCN1CSC(=S)N(Cc2ccco2)C1 | inconclusive: 39.8 µM [inhibitor, single point] | –
45 | COc1ccc(CCn2c(N)c(S(=O)(=O)c3cccs3)c3nc4ccccc4nc32)cc1OC | – | inactive: 7.28%
46 | O=c1[nH]ccc2c(O)cccc12 | – | inactive: 2.66%
47 | COc1ccc(S(=O)(=O)NCCSCc2ccco2)cc1 | inconclusive: 12.6 µM [inhibitor, partial curve] | –
48 | COC(=O)c1cc(COc2ccc3ccc(=O)oc3c2)c(C)o1 | – | inactive: -0.769%
49 | ICCc1ccccc1 | active: 12.6 µM | –
50 | O=C(Nc1ccccc1)Nc1ccc(S(=O)(=O)N2CCCCC2)cc1 | inconclusive: 25.1 µM [inhibitor, partial curve] | –
51 | Oc1ccccc1-c1cc(C(F)(F)F)[nH]n1 | inconclusive: 25.1 µM [inhibitor, single point] | –
52 | CC(=O)c1cc(-c2ccccc2)[nH]c1N1CCOCC1 | inconclusive: 15.8 µM [inhibitor, partial curve] | –

Row | SMILES | Potency | activity change, negative = inhibition
53 | CCOC(=O)c1sc(NC(=O)C2CC2)cc1C | inconclusive: 15.8 µM [inhibitor, partial curve] | –
54 | COc1ccc(CCNc2nc(N3CCOCC3)nc(N3CCOCC3)n2)cc1OC | inconclusive: 25.1 µM [inhibitor, single point] | –
55 | COc1ccc(OCCn2c(=N)n(CCO)c3ccccc32)cc1 | – | inactive: 2.62%
56 | COCCSc1ccccc1C(=O)Nc1nnc(COC)s1 | inconclusive: 25.1 µM [inhibitor, partial curve] | –
57 | NCc1nnn(Cc2ccccc2)c1N | – | inactive: 2.54% [at 11.4 µM]
58 | CCCCN(C(=O)c1ccc(Cl)cc1)C1CC2CCC(C1)N2C (stereo unspecified) | – | inactive: 0.193%
59 | Cc1nc2c(ccc3nc(NC(=O)c4ccc5c(c4)OCCO5)sc32)s1 | inconclusive: 10 µM [inhibitor, partial curve] | –
60 | CCOC(=O)c1sc(NC(=O)CSc2nnc(Cc3ccccc3)o2)c(C#N)c1C | inconclusive: 2 µM [inhibitor, full curve] | –
61 | Cc1noc(C)c1-c1nc(NCc2cccs2)c2ccccc2n1 | active: 12.6 µM | –
62 | Nc1ccccc1C(=O)/C=C\c1ccc2c(c1)OCO2 | – | inactive: -9.08% [at 11.4 µM]
63 | O=c1c(O)c(-c2ccc(O)cc2)oc2cc(O)cc(O)c12 | inconclusive: 10 µM [inhibitor, partial curve] and inconclusive: 7.94 µM [inhibitor, partial curve] | –
64 | COc1ccccc1CNc1ncncc1-c1ccoc1 | active: 10 µM | –
65 | N#C/C(=C(/N)Sc1ccc(N)cc1)c1ccccc1C(F)(F)F | inconclusive: 25.1 µM [inhibitor, partial curve] | –
66 | CCCC(=O)N(c1ccc2oc(=O)sc2c1)S(=O)(=O)c1ccccc1 | active: 25.1 µM | –
67 | COc1nc(-c2ccccc2)ccc1-c1noc(COc2ccccc2)n1 | inconclusive: 39.8 µM [inhibitor, single point] | –
68 | O=C(COc1nnc2ccccn12)N1CCN(S(=O)(=O)c2ccccc2)CC1 | – | inactive: 14%
69 | O=C1N(Cc2ccc3c(c2)OCO3)c2ccccc2C1(O)c1c[nH]c2ccccc12 (stereo unspecified) | inconclusive: 25.1 µM [inhibitor, single point] | –
70 | CC(C)(CO)[C@H](O)C(=O)NCCC(=O)O | – | inactive: 16.1% [at 25.6 µM]
71 | CCOC(=O)C(C)Sc1ncnc2c1nnn2-c1ccc(F)cc1 (stereo unspecified) | – | inactive: -4.43%
72 | COCCN(C(=O)Cn1nnc2ccccc21)C(C(=O)NC1CCCC1)c1cc(OC)ccc1OC (stereo unspecified) | inconclusive: 39.8 µM [inhibitor, single point] | –
73 | COc1ccc2[nH]c(=O)c(CN(C(=O)COc3ccccc3)C(C)C)cc2c1 | inconclusive: 39.8 µM [inhibitor, single point] | –
74 | S=c1[nH]ncn1/N=C/c1ccccc1 | inconclusive: 31.6 µM [inhibitor, single point] | –
75 | COc1ccc(-c2nc3cnc(OC)nc3n(Cc3cccs3)c2=O)cc1 | – | inactive: -8.45%
76 | COC1(OC)N=C(NC(=O)Nc2ccccc2)C2(C#N)C(c3ccccc3)C12C#N (stereo unspecified) | inconclusive: 12.6 µM [inhibitor, partial curve] | –
